Data as given in PMC4336329 (PLoS ONE, 2015).
Hit rate of the full screen: of about 310,000 compounds, about 14,000 (4.5%) showed an effect of 50% or more. Effects have a minus sign here. The list shows a part of the results.

target: human ether-à-go-go-related gene (hERG) potassium channel (human, UniProt Q12809); assay: primary screen, population patch clamp on CHO cells stably expressing hERG
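Also: peak tail current of the secondary pulse compared with the same well before compound.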

Chain of human ether-à-go-go-related gene (hERG) potassium channel (Q12809 whole entry, looked up): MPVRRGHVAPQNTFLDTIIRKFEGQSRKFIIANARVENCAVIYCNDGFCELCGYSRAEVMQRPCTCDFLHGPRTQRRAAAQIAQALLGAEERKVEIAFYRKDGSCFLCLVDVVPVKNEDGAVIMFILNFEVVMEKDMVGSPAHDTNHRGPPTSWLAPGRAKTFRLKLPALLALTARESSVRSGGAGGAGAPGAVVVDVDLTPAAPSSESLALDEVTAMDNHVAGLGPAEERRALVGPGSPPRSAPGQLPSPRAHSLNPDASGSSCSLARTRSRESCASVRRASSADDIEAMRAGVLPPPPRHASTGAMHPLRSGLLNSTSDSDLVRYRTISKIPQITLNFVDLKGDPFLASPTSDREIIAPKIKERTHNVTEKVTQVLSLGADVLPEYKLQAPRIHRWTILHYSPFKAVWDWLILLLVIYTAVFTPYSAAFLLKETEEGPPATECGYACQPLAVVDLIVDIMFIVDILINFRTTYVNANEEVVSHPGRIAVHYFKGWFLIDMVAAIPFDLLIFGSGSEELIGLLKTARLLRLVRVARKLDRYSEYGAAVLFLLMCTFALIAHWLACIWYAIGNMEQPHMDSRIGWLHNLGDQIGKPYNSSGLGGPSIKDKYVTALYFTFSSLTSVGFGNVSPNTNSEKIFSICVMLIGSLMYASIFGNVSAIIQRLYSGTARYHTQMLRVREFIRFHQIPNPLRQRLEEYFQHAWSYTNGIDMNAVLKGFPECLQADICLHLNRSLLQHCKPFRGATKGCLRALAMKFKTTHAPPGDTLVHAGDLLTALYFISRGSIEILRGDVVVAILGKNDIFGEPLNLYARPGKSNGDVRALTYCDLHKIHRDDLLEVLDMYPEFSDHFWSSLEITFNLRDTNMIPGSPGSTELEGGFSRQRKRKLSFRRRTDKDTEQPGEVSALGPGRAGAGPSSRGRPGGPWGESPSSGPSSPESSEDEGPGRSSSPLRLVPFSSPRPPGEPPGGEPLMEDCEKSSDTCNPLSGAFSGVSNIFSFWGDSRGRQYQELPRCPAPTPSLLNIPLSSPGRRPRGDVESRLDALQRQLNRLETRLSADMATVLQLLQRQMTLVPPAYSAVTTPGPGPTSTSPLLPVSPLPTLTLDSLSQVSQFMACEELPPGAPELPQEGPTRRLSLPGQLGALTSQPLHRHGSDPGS

Question: How did the “hERG current change (%, negative = inhibition) at 10uM” value turn out when `CC1(C)CCc2cc(CN3CCN(c4ccccn4)CC3)ccc2O1` was run?
Answer: The value was 0.624%.

Question: With `O=C(NC1CCCCC1)Nn1c(-c2ccccc2)nc2ccccc2c1=O` as the molecule, how does the “hERG current change (%, negative = inhibition) at 10uM” value read?
Answer: The value was -7.53%.

Question: Which “hERG current change (%, negative = inhibition) at 10uM” value does the source give for `COC(=O)c1ccc(C(=O)OC)c(NC(=O)CN2CCN(c3ccccc3)CC2)c1` here?
Answer: The value was -5.1%.

Question: For `CCN(C(=O)c1cnc(OC)cc1C(F)(F)F)c1ccc(Cl)cc1Cl`, which “hERG current change (%, negative = inhibition) at 10uM” value is on record?
Answer: The value was 5.73%.

Question: `CC1=C(C(=O)OC(C)C)C2(O)C(=O)c3ccccc3C2(O)N1` (stereo not shown) was tested. Which “hERG current change (%, negative = inhibition) at 10uM” value did it give?
Answer: The value was 12%.

Question: Which “hERG current change (%, negative = inhibition) at 10uM” value does the source give for `COc1ccc(-c2c(C)oc3ccc(C)cc23)cc1` here?
Answer: Its value is 2.28%.

Question: How did the “hERG current change (%, negative = inhibition) at 10uM” value turn out when `S=C(NN=C(C1CC1)C1CC1)Nc1ccccc1` was run?
Answer: The value was 7.42%.

Question: With `COc1ccc(N2C(=O)CC(n3c(CCCCO)nc4ccccc43)C2=O)cc1` (stereo not shown) as the molecule, how does the “hERG current change (%, negative = inhibition) at 10uM” value read?
Answer: The value was 18.1%.

Question: For `Cc1ccc(OCCn2c(=O)cnc3ccccc32)cc1`, which “hERG current change (%, negative = inhibition) at 10uM” value is on record?
Answer: Its value is -9.95%.

Question: How did the “hERG current change (%, negative = inhibition) at 10uM” value turn out when `O=C(c1ccccc1)c1cn(CC(=O)N2CCCc3ccccc32)c2ccccc12` was run?
Answer: The value was -1.4%.

Question: With `Clc1cccc(C2Nc3cccc4cccc(c34)N2)c1Cl` as the molecule, how does the “hERG current change (%, negative = inhibition) at 10uM” value read?
Answer: Its value is 16.2%.

Question: For `COCCN(C(=S)Nc1ccc(C)cc1)C(C)c1ccco1` (stereo not shown), which “hERG current change (%, negative = inhibition) at 10uM” value is on record?
Answer: Its value is 0.373%.

Question: With `Cc1ccc(C(=O)c2ccccc2C(=O)OCC(=O)Nc2cccc([N+](=O)[O-])c2)cc1` as the molecule, how does the “hERG current change (%, negative = inhibition) at 10uM” value read?
Answer: The value was -20%.

Question: How did the “hERG current change (%, negative = inhibition) at 10uM” value turn out when `O=C1C=C(/C=C/c2ccccc2)C[C@@H](c2ccc(F)cc2)C1` was run?
Answer: The value was -59.7%.

Question: `CCOc1ccc(Cc2nnc(SCC(=O)c3ccc(OC)cc3)o2)cc1` was tested. Which “hERG current change (%, negative = inhibition) at 10uM” value did it give?
Answer: The value was 8.18%.

Question: With `O=C(c1cccnc1)N1CCN(S(=O)(=O)c2ccc(F)cc2)CC1` as the molecule, how does the “hERG current change (%, negative = inhibition) at 10uM” value read?
Answer: The value was 4.27%.

Question: With `Cc1ccc(-c2nc3ccccc3n2C)o1` as the molecule, how does the “hERG current change (%, negative = inhibition) at 10uM” value read?
Answer: The value was 3.68%.

Question: For `NC1=NN=C(N2N=C(c3ccc(Br)cc3)CC2(O)C(F)(F)F)n2ncnc2C1` (stereo not shown), which “hERG current change (%, negative = inhibition) at 10uM” value is on record?
Answer: Its value is 0.0237%.

Question: How did the “hERG current change (%, negative = inhibition) at 10uM” value turn out when `Cc1cc(F)ccc1NC(=O)Cn1c(C)csc1=O` was run?
Answer: The value was 17.1%.

Question: How did the “hERG current change (%, negative = inhibition) at 10uM” value turn out when `CC(C)(C)NC(=O)CSc1n[nH]c(=O)n1-c1ccccc1` was run?
Answer: The value was 8.52%.

Question: For `CC(C)(C)C(=O)COC(=O)c1ccccc1O`, which “hERG current change (%, negative = inhibition) at 10uM” value is on record?
Answer: The value was 8.68%.

Question: For `Fc1ccc(NC(=S)Nc2ccc(Br)cc2)cc1`, which “hERG current change (%, negative = inhibition) at 10uM” value is on record?
Answer: Its value is 5.81%.

Question: With `Cc1sc2nc(CN3CCCC3)nc(Cl)c2c1C` as the molecule, how does the “hERG current change (%, negative = inhibition) at 10uM” value read?
Answer: The value was -4.03%.

Question: How did the “hERG current change (%, negative = inhibition) at 10uM” value turn out when `O=C(COC(=O)c1ccc[nH]c1=O)NC1CCCc2ccccc21` (stereo not shown) was run?
Answer: The value was 13.9%.

Question: How did the “hERG current change (%, negative = inhibition) at 10uM” value turn out when `COc1ccc(N(CC(O)Cn2nnc3ccccc32)S(=O)(=O)c2ccc(C)cc2)cc1` (stereo not shown) was run?
Answer: The value was -64.6%.

Question: `Cc1ccc2c(c1)C1CN(C)CCC1N2C(=O)Nc1cccc(C(F)(F)F)c1` (stereo not shown) was tested. Which “hERG current change (%, negative = inhibition) at 10uM” value did it give?
Answer: Its value is -52.4%.

Question: How did the “hERG current change (%, negative = inhibition) at 10uM” value turn out when `CCOC(=O)c1oc2ccccc2c1CN1CCN(c2ccccc2)CC1.Cl` was run?
Answer: The value was -26.6%.

Question: Which “hERG current change (%, negative = inhibition) at 10uM” value does the source give for `Cc1ccn(CCC(=O)O)n1` here?
Answer: The value was 26.6%.

Question: With `CCOC(=O)c1nnc(-c2ccccc2)nc1N1CC(C)OC(C)C1` (stereo not shown) as the molecule, how does the “hERG current change (%, negative = inhibition) at 10uM” value read?
Answer: The value was 5.24%.

Question: Which “hERG current change (%, negative = inhibition) at 10uM” value does the source give for `Clc1ccc(C2=Nn3c(nnc3-c3cc(-c4ccccc4)n[nH]3)SC2)cc1` here?
Answer: Its value is -8.18%.

Question: With `O=C(C(Cl)Cl)N1CCN(c2ccccn2)CC1` as the molecule, how does the “hERG current change (%, negative = inhibition) at 10uM” value read?
Answer: Its value is 1.19%.

Question: Which “hERG current change (%, negative = inhibition) at 10uM” value does the source give for `CCOCCn1c(CC)nc2ccccc21` here?
Answer: The value was 16.9%.

Question: How did the “hERG current change (%, negative = inhibition) at 10uM” value turn out when `O=C(Nc1cccc(N2C(=O)C=CC2=O)c1)c1cccs1` was run?
Answer: Its value is 10.3%.

Question: For `Cc1cc(C)c2c(c1)cc(C)c1nnc(SCC(=O)Nc3ccccc3N3CCOCC3)n12`, which “hERG current change (%, negative = inhibition) at 10uM” value is on record?
Answer: The value was -29.5%.

Question: How did the “hERG current change (%, negative = inhibition) at 10uM” value turn out when `O=c1[nH]c(CN2CCOCC2)nc2cc(Cl)ccc12` was run?
Answer: Its value is -10.4%.

Question: With `COc1cccc(N/C(=N/C(=S)Nc2ccc(C)cc2C)Nc2nc(C)cc(C)n2)c1` as the molecule, how does the “hERG current change (%, negative = inhibition) at 10uM” value read?
Answer: The value was 0.704%.

Question: Which “hERG current change (%, negative = inhibition) at 10uM” value does the source give for `Cc1cc(Cl)ccc1OCCCC(=O)NCc1ccccn1` here?
Answer: The value was -15.2%.

Question: Which “hERG current change (%, negative = inhibition) at 10uM” value does the source give for `Cc1ccc(S(=O)(=O)CCC(=O)Nc2nnc(-c3ccc(F)cc3)o2)cc1` here?
Answer: The value was 0.603%.

Question: `FC(F)(F)c1ccccc1-n1ccnc1` was tested. Which “hERG current change (%, negative = inhibition) at 10uM” value did it give?
Answer: Its value is 13.1%.

Question: For `NC(=O)CC(NC(=O)Cc1ccc(Cl)cc1)c1ccc(NC2CC3CCC2C3)c([N+](=O)[O-])c1` (stereo not shown), which “hERG current change (%, negative = inhibition) at 10uM” value is on record?
Answer: The value was -3.01%.

Question: Which “hERG current change (%, negative = inhibition) at 10uM” value does the source give for `COc1ccc(C(C)=O)cc1COc1nc(C)nc2ccccc12` here?
Answer: The value was 20.3%.

Question: How did the “hERG current change (%, negative = inhibition) at 10uM” value turn out when `COc1ccc(S(=O)(=O)N2CCC(C(=O)NC3CCCCC3)CC2)cc1OC` was run?
Answer: Its value is -0.0397%.

Question: `Cc1cc(C)c(NC(=O)Cn2nnc(C(=O)Nc3ccc(F)cc3F)c2N)c(C)c1` was tested. Which “hERG current change (%, negative = inhibition) at 10uM” value did it give?
Answer: The value was 8.74%.

Question: With `CCOc1ccccc1OCCCC(=O)N1CCN(S(=O)(=O)c2ccc(Cl)cc2)CC1` as the molecule, how does the “hERG current change (%, negative = inhibition) at 10uM” value read?
Answer: The value was -29%.

Question: Which “hERG current change (%, negative = inhibition) at 10uM” value does the source give for `O=C(CSc1ccccc1)Nc1ccc(N2CCN(c3ccccc3)CC2)c(F)c1` here?
Answer: Its value is 10.9%.

Question: How did the “hERG current change (%, negative = inhibition) at 10uM” value turn out when `O=C(COC(=O)/C=C/c1cccs1)Nc1cccc(S(=O)(=O)N2CCOCC2)c1` was run?
Answer: Its value is -40.8%.

Question: With `CC(=O)c1cccc(N(C(=O)CNC(=O)c2ccco2)C(C(=O)NCC2CCCO2)c2ccccc2)c1` (stereo not shown) as the molecule, how does the “hERG current change (%, negative = inhibition) at 10uM” value read?
Answer: The value was 20.1%.

Question: How did the “hERG current change (%, negative = inhibition) at 10uM” value turn out when `O=c1c2c([nH]c3ccccc13)C(=C1CCCC1)CC2` was run?
Answer: Its value is 4.72%.

Question: `CN1CCN(NC(=O)/C=C/c2ccc(C(C)(C)C)cc2)CC1` was tested. Which “hERG current change (%, negative = inhibition) at 10uM” value did it give?
Answer: The value was -23%.

Question: `COC(=O)c1ccc(OCc2nc(N)nc(N3CCOCC3)n2)cc1` was tested. Which “hERG current change (%, negative = inhibition) at 10uM” value did it give?
Answer: Its value is 1.11%.

Question: With `CN(CCCC(=O)NCc1ccco1)S(=O)(=O)c1ccccc1` as the molecule, how does the “hERG current change (%, negative = inhibition) at 10uM” value read?
Answer: Its value is -5.89%.

Question: `CN(CCO)c1nc(N)c2c(N)nc3c(c2c1C#N)CC(=O)N3C1CCCC1` was tested. Which “hERG current change (%, negative = inhibition) at 10uM” value did it give?
Answer: Its value is -63.5%.

Question: With `O=C(CSc1nnc(NC(=O)C2CC2)s1)Nc1ccccc1` as the molecule, how does the “hERG current change (%, negative = inhibition) at 10uM” value read?
Answer: Its value is 10.5%.

Question: How did the “hERG current change (%, negative = inhibition) at 10uM” value turn out when `COc1ccc(CCNC(=S)N2CCC(C(N)=O)CC2)cc1` was run?
Answer: The value was 3.36%.

Question: For `Cc1ccc(NC(=O)c2c(F)cccc2Cl)cc1NS(C)(=O)=O`, which “hERG current change (%, negative = inhibition) at 10uM” value is on record?
Answer: The value was 13.3%.

Question: How did the “hERG current change (%, negative = inhibition) at 10uM” value turn out when `CCOC(=O)CC1C(=O)NCCN1c1nc2c(C)cccn2c(=O)c1/C=C1\SC(=S)N(C(C)CC)C1=O` (stereo not shown) was run?
Answer: The value was 4.42%.

Question: Which “hERG current change (%, negative = inhibition) at 10uM” value does the source give for `O=C1c2cccc3cccc(c23)C(=O)N1c1ccccc1Cl` here?
Answer: Its value is 16%.

Question: `O=c1cc[nH]c2c(C(F)(F)F)cccc12` was tested. Which “hERG current change (%, negative = inhibition) at 10uM” value did it give?
Answer: Its value is -0.945%.
